# This is one part of the list.
# Tests used:
# Assay in all cases: glycan array binding signal (z-score within array); higher = stronger binding
# Details in all cases: glycan notation: IUPAC condensed, linker removed
# [1] = molecular target: Neu5Ac(a2-6)Gal(b1-4)GlcNAc(b1-2)Man(a1-3)[GlcNAc(b1-2)Man(a1-6)]Man(b1-4)GlcNAc(b1-4)GlcNAc
# How it was run: (§1)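 The Consortium for Functional Glycomics database supplied 3228 glycan arrays, of which those lacking an available protein sequence were dropped. The binding signal, a within-array Z-score, was averaged across arrays of the same protein sequence and across linkers. Negative scores can be read as non-binding.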
# [2] = molecular target: Neu5Ac(a2-6)Gal(b1-4)GlcNAc(b1-2)Man(a1-3)[GlcNAc(b1-2)Man(b1-4)GlcNAc(b1-2)Man(a1-6)]Man(b1-4)GlcNAc(b1-4)GlcNAc
# How it was run: as §1
# [3] = molecular target: Neu5Ac(a2-6)Gal(b1-4)GlcNAc(b1-2)Man(a1-3)[Man(a1-6)]Man(b1-4)GlcNAc(b1-4)GlcNAc
# How it was run: as §1
# [4] = molecular target: Neu5Ac(a2-6)Gal(b1-4)GlcNAc(b1-2)Man(a1-3)[Neu5Ac(a2-6)Gal(b1-4)GlcNAc(b1-2)Man(a1-6)]Man(b1-4)GlcNAc(b1-4)GlcNAc
# How it was run: as §1
# [5] = molecular target: Neu5Ac(a2-6)Gal(b1-4)GlcNAc(b1-2)Man(a1-6)Man(b1-4)GlcNAc(b1-4)GlcNAc
# How it was run: as §1
# [6] = molecular target: Neu5Ac(a2-6)Gal(b1-4)GlcNAc(b1-2)Man(a1-6)[Gal(b1-4)GlcNAc(b1-2)Man(a1-3)]Man(b1-4)GlcNAc(b1-4)GlcNAc
# How it was run: as §1
# [7] = molecular target: Neu5Ac(a2-6)Gal(b1-4)GlcNAc(b1-2)Man(a1-6)[GlcNAc(b1-2)Man(a1-3)]Man(b1-4)GlcNAc(b1-4)GlcNAc
# How it was run: as §1
# [8] = molecular target: Neu5Ac(a2-6)Gal(b1-4)GlcNAc(b1-2)Man(a1-6)[Man(a1-3)]Man(b1-4)GlcNAc(b1-4)GlcNAc
# How it was run: as §1
# [9] = molecular target: Neu5Ac(a2-6)Gal(b1-4)GlcNAc(b1-3)Gal(b1-3)GlcNAc
# How it was run: as §1
# [10] = molecular target: Neu5Ac(a2-6)Gal(b1-4)GlcNAc(b1-3)Gal(b1-4)GlcNAc
# How it was run: as §1
# [11] = molecular target: Neu5Ac(a2-6)Gal(b1-4)GlcNAc(b1-3)Gal(b1-4)GlcNAc(b1-3)Gal(b1-4)GlcNAc
# How it was run: as §1
# [12] = molecular target: Neu5Ac(a2-6)Gal(b1-4)GlcNAc(b1-3)Gal(b1-4)[Fuc(a1-3)]GlcNAc(b1-3)Gal(b1-4)[Fuc(a1-3)]GlcNAc
# How it was run: as §1
# [13] = molecular target: Neu5Ac(a2-6)Gal(b1-4)GlcNAc(b1-3)GalNAc
# How it was run: as §1
# [14] = molecular target: Neu5Ac(a2-6)Gal(b1-4)GlcNAc6S
# How it was run: as §1
# [15] = molecular target: Neu5Ac(a2-6)GalNAc
# How it was run: as §1
# [16] = molecular target: Neu5Ac(a2-6)GalNAc(b1-4)GlcNAc
# How it was run: as §1
# [17] = molecular target: Neu5Ac(a2-6)GlcNAc(b1-4)GlcNAc
# How it was run: as §1
# [18] = molecular target: Neu5Ac(a2-6)GlcNAc(b1-4)GlcNAc(b1-4)GlcNAc
# How it was run: as §1
# [19] = molecular target: Neu5Ac(a2-8)Neu5Ac
# How it was run: as §1
# [20] = molecular target: Neu5Ac(a2-8)Neu5Ac(a2-3)Gal(b1-3)GalNAc(b1-4)[Neu5Ac(a2-8)Neu5Ac(a2-3)]Gal(b1-4)Glc
# How it was run: as §1
# [21] = molecular target: Neu5Ac(a2-8)Neu5Ac(a2-3)Gal(b1-4)Glc
# How it was run: as §1
# [22] = molecular target: Neu5Ac(a2-8)Neu5Ac(a2-3)[Gal(b1-3)GalNAc(b1-4)]Gal(b1-4)Glc
# How it was run: as §1
# [23] = molecular target: Neu5Ac(a2-8)Neu5Ac(a2-3)[GalNAc(b1-4)]Gal(b1-4)Glc
# How it was run: as §1
# [24] = molecular target: Neu5Ac(a2-8)Neu5Ac(a2-8)Neu5Ac
# How it was run: as §1
# [25] = molecular target: Neu5Ac(a2-8)Neu5Ac(a2-8)Neu5Ac(a2-3)Gal(b1-4)Glc
# How it was run: as §1
# [26] = molecular target: Neu5Ac(a2-8)Neu5Ac(a2-8)Neu5Ac(a2-3)[GalNAc(b1-4)]Gal(b1-4)Glc
# How it was run: as §1
# [27] = molecular target: Neu5Ac(a2-8)Neu5Ac(a2-8)Neu5Ac(a2-8)Neu5Ac(a2-3)[GalNAc(b1-4)]Gal(b1-4)Glc
# How it was run: as §1
# [28] = molecular target: Neu5Ac(b2-6)Gal(b1-4)GlcNAc
# How it was run: as §1
# [29] = molecular target: Neu5Ac(b2-6)GalNAc
# How it was run: as §1
# [30] = molecular target: Neu5Ac9Ac(a2-3)Gal(b1-3)GlcNAc
# How it was run: as §1
# [31] = molecular target: Neu5Ac9Ac(a2-3)Gal(b1-4)GlcNAc
# How it was run: as §1
# [32] = molecular target: Neu5Ac9Ac(a2-6)Gal(b1-4)GlcNAc
# How it was run: as §1
# [33] = molecular target: Neu5Gc(a2-3)Gal(b1-3)GlcNAc
# How it was run: as §1
# [34] = molecular target: Neu5Gc(a2-3)Gal(b1-3)[Fuc(a1-4)]GlcNAc
# How it was run: as §1
# [35] = molecular target: Neu5Gc(a2-3)Gal(b1-4)Glc
# How it was run: as §1
# [36] = molecular target: Neu5Gc(a2-3)Gal(b1-4)GlcNAc
# How it was run: as §1
# [37] = molecular target: Neu5Gc(a2-3)Gal(b1-4)[Fuc(a1-3)]GlcNAc
# How it was run: as §1
# [38] = molecular target: Neu5Gc(a2-6)Gal(b1-4)GlcNAc
# How it was run: as §1
# [39] = molecular target: Neu5Gc(a2-6)GalNAc
# How it was run: as §1
# [40] = molecular target: Neu5Gc(b2-6)Gal(b1-4)GlcNAc
# How it was run: as §1
binder,measurement,setting,value
"GNAT (Pseudomonas aeruginosa), Q9HV14 (protein) MQLSHRPAETGDLETVAGFPQDRDELFYCYPKAIWPFSVAQLAAAIAERRGSTVAVHDGQVLGFANFYQWQHGDFCALGNMMVAPAARGLGVARYLIGVMENLAREQYKARLMKISCFNANAAGLLLYTQLGYQPRAIAERHDPDGRRVALIQMDKPLEP",glycan array binding signal (z-score),[1],-0.458
same,glycan array binding signal (z-score),[2],-0.293
same,glycan array binding signal (z-score),[3],-0.411
same,glycan array binding signal (z-score),[4],-0.174
same,glycan array binding signal (z-score),[5],-0.389
same,glycan array binding signal (z-score),[6],0.956
same,glycan array binding signal (z-score),[7],-0.283
same,glycan array binding signal (z-score),[8],-0.341
same,glycan array binding signal (z-score),[9],-0.3
same,glycan array binding signal (z-score),[10],-0.454
same,glycan array binding signal (z-score),[11],-0.331
same,glycan array binding signal (z-score),[12],-0.015
same,glycan array binding signal (z-score),[13],0.079
same,glycan array binding signal (z-score),[14],-0.25
same,glycan array binding signal (z-score),[15],-0.404
same,glycan array binding signal (z-score),[16],-0.396
same,glycan array binding signal (z-score),[17],-0.449
same,glycan array binding signal (z-score),[18],-0.444
same,glycan array binding signal (z-score),[19],-0.409
same,glycan array binding signal (z-score),[20],-0.264
same,glycan array binding signal (z-score),[21],-0.435
same,glycan array binding signal (z-score),[22],-0.25
same,glycan array binding signal (z-score),[23],-0.165
same,glycan array binding signal (z-score),[24],-0.3
same,glycan array binding signal (z-score),[25],-0.215
same,glycan array binding signal (z-score),[26],-0.262
same,glycan array binding signal (z-score),[27],-0.322
same,glycan array binding signal (z-score),[28],0.567
same,glycan array binding signal (z-score),[29],-0.413
same,glycan array binding signal (z-score),[30],-0.297
same,glycan array binding signal (z-score),[31],-0.214
same,glycan array binding signal (z-score),[32],-0.479
same,glycan array binding signal (z-score),[33],-0.468
same,glycan array binding signal (z-score),[34],-0.266
same,glycan array binding signal (z-score),[35],-0.407
same,glycan array binding signal (z-score),[36],-0.316
same,glycan array binding signal (z-score),[37],-0.413
same,glycan array binding signal (z-score),[38],-0.437
same,glycan array binding signal (z-score),[39],-0.312
same,glycan array binding signal (z-score),[40],1.53
